Measurements from PubChem BioAssay AID1347165 (National Center for Advancing Translational Sciences (NCATS), 2019).
Hit rate of the full screen: of about 220,000 compounds, about 5,700 (2.6%) were called active. This list was built around the results that the source calls inconclusive (neither active nor inactive); the mix of calls is not that of the screen. Calls follow the shape of the dose curve; as a rule, active = well fitted inhibition curve with a large enough effect; inconclusive = small, poorly fitted or top-dose-only effect; inactive = no such curve, though single readings can be large or run the other way. Potencies of inconclusive entries are doubtful fits and often do not repeat.

biological target: Lysine-specific demethylase 5B (Homo sapiens) (UniProt Q9UGL1); assay: Primary screen for KDM5B Histone Demethylases FDH-coupled qHTS; details: FDH-coupled NADH fluorescence (FDH is formaldehyde dehydrogenase); activity change, negative = inhibition: at 57.7 µM (top of the series) unless noted; also: nearly all actives have a fitted effect of over 70% in size; as to activity change, negative = inhibition: 0% is about no effect
Chain of UniProt Q9UGL1 (Q9UGL1 whole entry, looked up): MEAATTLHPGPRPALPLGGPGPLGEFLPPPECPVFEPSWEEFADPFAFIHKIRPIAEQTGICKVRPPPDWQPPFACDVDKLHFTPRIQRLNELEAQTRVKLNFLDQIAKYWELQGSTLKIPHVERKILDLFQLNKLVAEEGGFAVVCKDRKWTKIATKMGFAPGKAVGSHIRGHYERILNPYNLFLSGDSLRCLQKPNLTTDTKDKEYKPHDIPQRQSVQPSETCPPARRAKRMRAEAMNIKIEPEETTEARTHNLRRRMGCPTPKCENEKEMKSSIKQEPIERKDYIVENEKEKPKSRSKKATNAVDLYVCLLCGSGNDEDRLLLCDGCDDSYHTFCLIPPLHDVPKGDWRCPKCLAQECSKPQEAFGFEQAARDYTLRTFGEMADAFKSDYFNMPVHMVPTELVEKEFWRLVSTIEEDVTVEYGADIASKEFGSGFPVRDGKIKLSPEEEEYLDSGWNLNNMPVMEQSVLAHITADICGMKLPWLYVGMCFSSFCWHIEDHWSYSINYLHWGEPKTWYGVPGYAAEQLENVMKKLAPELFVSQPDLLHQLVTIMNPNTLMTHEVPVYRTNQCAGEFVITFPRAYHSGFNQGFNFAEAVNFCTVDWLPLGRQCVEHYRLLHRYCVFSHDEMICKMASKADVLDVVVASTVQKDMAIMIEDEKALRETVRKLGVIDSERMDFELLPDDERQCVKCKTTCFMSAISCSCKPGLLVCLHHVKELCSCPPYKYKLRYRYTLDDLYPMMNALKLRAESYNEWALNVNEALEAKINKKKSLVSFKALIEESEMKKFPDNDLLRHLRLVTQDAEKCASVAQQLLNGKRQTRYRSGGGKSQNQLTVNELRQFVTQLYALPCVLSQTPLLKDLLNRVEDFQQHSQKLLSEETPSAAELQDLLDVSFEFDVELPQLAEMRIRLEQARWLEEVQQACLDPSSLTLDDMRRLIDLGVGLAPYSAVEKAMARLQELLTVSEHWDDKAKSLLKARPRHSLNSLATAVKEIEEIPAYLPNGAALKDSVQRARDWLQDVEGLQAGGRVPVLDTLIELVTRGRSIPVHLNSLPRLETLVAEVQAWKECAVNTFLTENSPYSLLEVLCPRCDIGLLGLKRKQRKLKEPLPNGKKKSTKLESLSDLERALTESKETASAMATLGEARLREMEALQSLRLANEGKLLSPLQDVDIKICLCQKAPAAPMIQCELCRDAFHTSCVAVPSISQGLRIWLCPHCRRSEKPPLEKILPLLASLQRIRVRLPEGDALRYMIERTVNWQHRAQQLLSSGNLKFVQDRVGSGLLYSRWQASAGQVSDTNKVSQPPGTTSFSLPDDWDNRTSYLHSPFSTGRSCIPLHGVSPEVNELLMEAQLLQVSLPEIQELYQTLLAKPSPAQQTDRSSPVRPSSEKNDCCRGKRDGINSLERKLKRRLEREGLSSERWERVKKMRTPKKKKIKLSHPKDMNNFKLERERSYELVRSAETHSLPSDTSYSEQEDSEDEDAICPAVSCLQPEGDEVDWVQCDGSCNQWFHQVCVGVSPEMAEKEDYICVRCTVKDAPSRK
Method in brief: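 Here, H3K4me3 peptide (12.5 µM in substrate mix) is demethylated by KDM5BΔAP, 200 nM final, after 10 min compound exposure. Formaldehyde product is coupled through FDH (0.25 U/mL in mix) to NADH fluorescence; 30-min ΔRFU feeds dose-response curves.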
Potency is read from the fitted curve at half-maximal effect; tags tell the direction and shape of the fitted curve.

Row | Structure (SMILES) | Potency | activity change, negative = inhibition
1 | Cc1cccc(N(C)C(=O)c2cc3c(=O)oc4ccc(C)cc4c3s2)c1 | inconclusive: 28.2 µM [inhibitor, partial curve, poor fit] | 
2 | O=C(Nc1c(C(=O)N2CCN(c3ccccc3)CC2)oc2ccccc12)c1ccccc1F | inconclusive: 39.8 µM [inhibitor, single point] | 
3 | Cc1ccccc1C(=O)N1CCCC2(C1)Nc1cccnc1NC2=NC1CCCC1 (stereo unspecified) | active: 15.8 µM | 
4 | O=C1Nc2ccc(-c3ccccc3F)cc2C(=O)N2CCN(C(=O)C3CCCCC3)C[C@H]12 | inconclusive: 28.2 µM [inhibitor, single point] | 
5 | CCc1cc(=O)oc2cc(OS(=O)(=O)c3sc(C(=O)OC)c(C)c3C(=O)OC)ccc12 | inconclusive: 28.2 µM [inhibitor, partial curve, poor fit] | 
6 | CCCN1CCN(C(=O)Cn2ncc3c4ccccc4n(Cc4cccc(Cl)c4)c3c2=O)CC1 | inconclusive: 17.8 µM [inhibitor, single point] | 
7 | Cc1ccc2nc(C)c(C(=O)N3CCN(S(=O)(=O)c4ccc(F)cc4)CC3)cc2c1 |  | inactive: -2.03%
8 | CCOC(=O)c1ccc(NC(=O)CN(c2ccccc2Cl)S(C)(=O)=O)cc1 |  | inactive: 12%
9 | Cc1ccc(-c2cc3c(=O)n(CCNC(=O)c4cc(Cl)ccc4F)ccn3n2)cc1C | inconclusive: 31.6 µM [inhibitor, partial curve, poor fit] | 
10 | Cc1ccc(C(=O)NC2CCN(c3cnn(CC4CC4)c(=O)c3)CC2)cc1C |  | inactive: -0.0186%
11 | CCn1ccnc1C1CCN(C(=O)Cn2cccnc2=O)CC1 | inconclusive: 7.08 µM [inhibitor, partial curve] | 
12 | CN1C2=C(C(=O)CC(C)(C)C2)C(c2ccc(O)cc2)C2=C1CC(C)(C)CC2=O | inconclusive: 22.4 µM [inhibitor, single point] | 
13 | COC(=O)C1(C(=O)OC)CC(C(=O)OC)(C(=O)OC)C(C(=O)OC)(C(=O)OC)C1 |  | inactive: 20.9%
14 | Cc1cn2nc(C(=O)NCc3ccc(C(C)C)cc3)cc2c(N2CCCC2)n1 | active: 35.5 µM | 
15 | COc1ccc(OC)c(NC(=O)Cn2c(CCC(=O)O)ccc2-c2ccccc2)c1 | inconclusive: 17.8 µM [inhibitor, single point] | 
16 | Brc1ccc(/C=N/Nc2nc3ccccc3o2)cc1 | inconclusive: 20 µM [inhibitor, partial curve, poor fit] | 
17 | Cc1c(C#N)c(N)nc2c3c(sc12)NC(=O)CC3c1c(F)cccc1Cl (stereo unspecified) | inconclusive: 35.5 µM [inhibitor, partial curve, poor fit] | 
18 | CC(=O)Nc1cccc(-c2ncc3c(n2)OCCN(c2ccccc2)C3=O)c1 |  | inactive: -15.7% [at 86.2 µM]
19 | O=C(O)C(c1c[nH]c2ccc(Br)cc12)N1CCN(c2nsc3ccccc23)CC1 (stereo unspecified) | inconclusive: 39.8 µM [inhibitor, single point] | 
20 | COc1cccc(Oc2c(C)oc3cc(OC)ccc3c2=O)c1 |  | inactive: 10.1%
21 | COc1ccc(Cl)cc1NC(=O)c1sc2nc3c(cc2c1N)CN(C)CC3 | inconclusive: 15.8 µM [inhibitor, partial curve, poor fit] | 

Row | Structure (SMILES) | Potency | activity change, negative = inhibition
22 | CCc1ccc(-c2[nH]c3c(c2-c2ccc(OC)cc2)c(=O)[nH]c(=O)n3C)cc1 |  | inactive: -12%
23 | O=C(CCC1N=C2c3ccccc3N=C(SCc3ccc(Cl)cc3)N2C1=O)NC1CCCCC1 (stereo unspecified) | inconclusive: 11.2 µM [inhibitor, partial curve, poor fit] | 
24 | CCn1cc(C(=O)O)c(=O)c2cc(F)c(N3CCN(C(=S)NC(=O)c4cccc(C)c4)CC3)cc21 | inconclusive: 39.8 µM [inhibitor, single point] | 
25 | Cc1ccc(-n2ncc3c(N4CCCCC4)ncnc32)cc1 | inconclusive: 28.2 µM [inhibitor, single point] | 
26 | CC(C)NC(=O)CN(C)CC(O)COc1cc(Cl)ccc1Cl (stereo unspecified) |  | inactive: 8.17%
27 | Cc1cc(OCC(=O)Nc2nc3c(s2)CCCC3)cc(C)c1Cl |  | inconclusive: -31.6% [inhibitor]
28 | Cc1ccc(C(=O)c2ccccc2C(=O)OCc2c(Cl)cccc2Cl)cc1 |  | inactive: -9.31%
29 | O=C(Nc1cccc(Cl)c1)c1cc(S(=O)(=O)N2CCC3(CC2)OCCO3)ccc1F | inconclusive: 17.8 µM [inhibitor, partial curve, poor fit] | 
30 | COCCn1c(COc2ccccc2-c2ccccc2)nnc1SCC(=O)c1ccccc1Cl |  | inactive: -4.67%
31 | COc1ccc(-c2coc3cc(OCCN4CCN(CCO)CC4)ccc3c2=O)cc1 |  | inactive: -8.67%
32 | CN(C)CCNc1oc(-c2ccc(S(=O)(=O)N3CCOCC3)cc2)nc1C#N | inconclusive: 25.1 µM [inhibitor, partial curve, poor fit] | 
33 | COc1cccc(C(=O)N[C@@H]2CN(c3ccccn3)C[C@H]2CN(C)C)c1OC | active: 28.2 µM | 
34 | COc1cccc(CN2CCC(C(=O)N3CCCCCCNC(=O)CC3)CC2)c1 | inconclusive: 20 µM [inhibitor, single point] | 
35 | O=C1CC2(CCN(c3cnc4ccccc4n3)CC2)CN1CCCc1ccccc1 | inconclusive: 25.1 µM [inhibitor, single point] | 
36 | CCOC(=O)c1cc2c(=O)n3ccccc3nc2n(Cc2ccco2)c1=NC(=O)c1ccc(F)cc1 | inconclusive: 15.8 µM [inhibitor, partial curve, poor fit] | 
37 | CC(NC(=O)/C(C#N)=C/c1ccc([N+](=O)[O-])o1)c1ccccc1 (stereo unspecified) | inconclusive: 15.8 µM [inhibitor, partial curve, poor fit] | 
38 | Nc1ncccc1C(=O)OCC(=O)N1CCN(S(=O)(=O)c2ccc(Cl)cc2)CC1 | inconclusive: 31.6 µM [inhibitor, partial curve, poor fit] | 
39 | CC(=O)c1ccc(NC(=O)Cn2c(=O)oc3cc(S(=O)(=O)N4CCCCC4)ccc32)cc1 | inconclusive: 17.8 µM [inhibitor, partial curve, poor fit] | 
40 | COc1ccc(OCC2(C)COc3ccc(C(=O)N(C)Cc4ccccc4)cc3N2)cc1 (stereo unspecified) | inconclusive: 31.6 µM [inhibitor, single point] | 
41 | Cc1ccc2c(c1)C(C)(c1ccccc1)CC(C)(C)N2C(=O)c1ccc(F)cc1 (stereo unspecified) |  | inconclusive: -32.6% [inhibitor]
